# Experimental data from the supplement of paper PMC8728848.
# The list shows a part of the results.
# Legend:
# Test in all cases: glycan array binding signal (z-score within array); higher = stronger binding
# Conditions in all cases: glycan notation: IUPAC condensed, linker removed
# [1] = molecular target: GlcNAc(a1-6)Gal(b1-4)GlcNAc
# How it was run: (§1)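 Arrays were curated from the Consortium for Functional Glycomics database, 3228 in total, and kept only where the protein sequence was available. Binding is expressed as a within-array Z-score. This score was averaged across arrays of the same protein sequence at different concentrations or buffers and across linkers, and negative values can be read as non-binding.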
# [2] = molecular target: GlcNAc(b1-2)Gal(b1-3)GalNAc
# How it was run: as §1
# [3] = molecular target: GlcNAc(b1-2)Man(a1-3)[GlcNAc(b1-2)Man(a1-6)]Man(b1-4)GlcNAc(b1-4)GlcNAc
# How it was run: as §1
# [4] = molecular target: GlcNAc(b1-2)Man(a1-3)[GlcNAc(b1-2)Man(a1-6)]Man(b1-4)GlcNAc(b1-4)[Fuc(a1-6)]GlcNAc
# How it was run: as §1
# [5] = molecular target: GlcNAc(b1-2)Man(a1-3)[GlcNAc(b1-4)][GlcNAc(b1-2)Man(a1-6)]Man(b1-4)GlcNAc(b1-4)GlcNAc
# How it was run: as §1
# [6] = molecular target: GlcNAc(b1-2)Man(a1-3)[GlcNAc(b1-4)][GlcNAc(b1-2)Man(a1-6)]Man(b1-4)GlcNAc(b1-4)[Fuc(a1-6)]GlcNAc
# How it was run: as §1
# [7] = molecular target: GlcNAc(b1-2)[GlcNAc(b1-4)]Man(a1-3)[GlcNAc(b1-2)Man(a1-6)]Man(b1-4)GlcNAc(b1-4)GlcNAc
# How it was run: as §1
# [8] = molecular target: GlcNAc(b1-2)[GlcNAc(b1-4)]Man(a1-3)[GlcNAc(b1-4)][GlcNAc(b1-2)Man(a1-6)]Man(b1-4)GlcNAc(b1-4)GlcNAc
# How it was run: as §1
# [9] = molecular target: GlcNAc(b1-2)[GlcNAc(b1-4)]Man(a1-3)[GlcNAc(b1-4)][GlcNAc(b1-2)[GlcNAc(b1-6)]Man(a1-6)]Man(b1-4)GlcNAc(b1-4)GlcNAc
# How it was run: as §1
# [10] = molecular target: GlcNAc(b1-2)[GlcNAc(b1-4)]Man(a1-3)[GlcNAc(b1-4)][GlcNAc(b1-2)[GlcNAc(b1-6)]Man(a1-6)]Man(b1-4)GlcNAc(b1-4)[Fuc(a1-6)]GlcNAc
# How it was run: as §1
# [11] = molecular target: GlcNAc(b1-2)[GlcNAc(b1-6)]Man(a1-6)[GlcNAc(b1-2)Man(a1-3)]Man(b1-4)GlcNAc(b1-4)GlcNAc
# How it was run: as §1
# [12] = molecular target: GlcNAc(b1-2)[GlcNAc(b1-6)]Man(a1-6)[GlcNAc(b1-2)Man(a1-3)]Man(b1-4)GlcNAc(b1-4)[Fuc(a1-6)]GlcNAc
# How it was run: as §1
# [13] = molecular target: GlcNAc(b1-2)[GlcNAc(b1-6)]Man(a1-6)[GlcNAc(b1-4)][GlcNAc(b1-2)Man(a1-3)]Man(b1-4)GlcNAc(b1-4)GlcNAc
# How it was run: as §1
# GlcNAc(b1-3)Fuc = molecular target: GlcNAc(b1-3)Fuc
# How it was run: as §1
# GlcNAc(b1-3)Gal = molecular target: GlcNAc(b1-3)Gal
# How it was run: as §1
# [14] = molecular target: GlcNAc(b1-3)Gal(b1-3)GalNAc
# How it was run: as §1
# GlcNAc(b1-3)Gal(b1-4)Glc = molecular target: GlcNAc(b1-3)Gal(b1-4)Glc
# How it was run: as §1
# [15] = molecular target: GlcNAc(b1-3)Gal(b1-4)GlcNAc
# How it was run: as §1
# [16] = molecular target: GlcNAc(b1-3)Gal(b1-4)GlcNAc(b1-2)Man(a1-3)[GlcNAc(b1-3)Gal(b1-4)GlcNAc(b1-2)Man(a1-6)]Man(b1-4)GlcNAc(b1-4)GlcNAc
# How it was run: as §1
# [17] = molecular target: GlcNAc(b1-3)Gal(b1-4)GlcNAc(b1-2)Man(a1-3)[GlcNAc(b1-3)Gal(b1-4)GlcNAc(b1-2)Man(a1-6)]Man(b1-4)GlcNAc(b1-4)[Fuc(a1-6)]GlcNAc
# How it was run: as §1
# [18] = molecular target: GlcNAc(b1-3)Gal(b1-4)GlcNAc(b1-2)[GlcNAc(b1-3)Gal(b1-4)GlcNAc(b1-6)]Man(a1-6)[GlcNAc(b1-3)Gal(b1-4)GlcNAc(b1-2)Man(a1-3)]Man(b1-4)GlcNAc(b1-4)GlcNAc
# How it was run: as §1
# [19] = molecular target: GlcNAc(b1-3)Gal(b1-4)GlcNAc(b1-3)Gal(b1-4)GlcNAc
# How it was run: as §1
# [20] = molecular target: GlcNAc(b1-3)Gal(b1-4)GlcNAc(b1-3)Gal(b1-4)GlcNAc(b1-2)Man(a1-3)[GlcNAc(b1-3)Gal(b1-4)GlcNAc(b1-3)Gal(b1-4)GlcNAc(b1-2)Man(a1-6)]Man(b1-4)GlcNAc(b1-4)GlcNAc
# How it was run: as §1
# [21] = molecular target: GlcNAc(b1-3)Gal(b1-4)GlcNAc(b1-3)Gal(b1-4)GlcNAc(b1-2)Man(a1-3)[GlcNAc(b1-3)Gal(b1-4)GlcNAc(b1-3)Gal(b1-4)GlcNAc(b1-2)Man(a1-6)]Man(b1-4)GlcNAc(b1-4)[Fuc(a1-6)]GlcNAc
# How it was run: as §1
# [22] = molecular target: GlcNAc(b1-3)Gal(b1-4)GlcNAc(b1-3)Gal(b1-4)GlcNAc(b1-2)[GlcNAc(b1-3)Gal(b1-4)GlcNAc(b1-3)Gal(b1-4)GlcNAc(b1-6)]Man(a1-6)[GlcNAc(b1-3)Gal(b1-4)GlcNAc(b1-3)Gal(b1-4)GlcNAc(b1-2)Man(a1-3)]Man(b1-4)GlcNAc(b1-4)[Fuc(a1-6)]GlcNAc
# How it was run: as §1
# [23] = molecular target: GlcNAc(b1-3)Gal(b1-4)GlcNAc(b1-3)Gal(b1-4)GlcNAc(b1-3)Gal(b1-4)GlcNAc(b1-2)Man(a1-3)[GlcNAc(b1-3)Gal(b1-4)GlcNAc(b1-3)Gal(b1-4)GlcNAc(b1-3)Gal(b1-4)GlcNAc(b1-2)Man(a1-6)]Man(b1-4)GlcNAc(b1-4)GlcNAc
# How it was run: as §1
# [24] = molecular target: GlcNAc(b1-3)Gal(b1-4)GlcNAc(b1-3)Gal(b1-4)GlcNAc(b1-3)Gal(b1-4)GlcNAc(b1-2)Man(a1-3)[GlcNAc(b1-3)Gal(b1-4)GlcNAc(b1-3)Gal(b1-4)GlcNAc(b1-3)Gal(b1-4)GlcNAc(b1-2)Man(a1-6)]Man(b1-4)GlcNAc(b1-4)[Fuc(a1-6)]GlcNAc
# How it was run: as §1
# [25] = molecular target: GlcNAc(b1-3)Gal(b1-4)GlcNAc(b1-3)Gal(b1-4)GlcNAc(b1-3)Gal(b1-4)GlcNAc(b1-2)[GlcNAc(b1-3)Gal(b1-4)GlcNAc(b1-3)Gal(b1-4)GlcNAc(b1-3)Gal(b1-4)GlcNAc(b1-6)]Man(a1-6)[GlcNAc(b1-3)Gal(b1-4)GlcNAc(b1-3)Gal(b1-4)GlcNAc(b1-3)Gal(b1-4)GlcNAc(b1-2)Man(a1-3)]Man(b1-4)GlcNAc(b1-4)[Fuc(a1-6)]GlcNAc
# How it was run: as §1
# [26] = molecular target: GlcNAc(b1-3)Gal(b1-4)GlcNAc(b1-3)Gal(b1-4)GlcNAc(b1-3)Gal(b1-4)GlcNAc(b1-3)Gal(b1-4)GlcNAc(b1-2)Man(a1-3)[GlcNAc(b1-3)Gal(b1-4)GlcNAc(b1-3)Gal(b1-4)GlcNAc(b1-3)Gal(b1-4)GlcNAc(b1-3)Gal(b1-4)GlcNAc(b1-2)Man(a1-6)]Man(b1-4)GlcNAc(b1-4)GlcNAc
# How it was run: as §1
# [27] = molecular target: GlcNAc(b1-3)Gal(b1-4)GlcNAc(b1-3)Gal(b1-4)GlcNAc(b1-3)Gal(b1-4)GlcNAc(b1-3)Gal(b1-4)GlcNAc(b1-2)Man(a1-3)[GlcNAc(b1-3)Gal(b1-4)GlcNAc(b1-3)Gal(b1-4)GlcNAc(b1-3)Gal(b1-4)GlcNAc(b1-3)Gal(b1-4)GlcNAc(b1-2)Man(a1-6)]Man(b1-4)GlcNAc(b1-4)[Fuc(a1-6)]GlcNAc
# How it was run: as §1
# [28] = molecular target: GlcNAc(b1-3)Gal(b1-4)GlcNAc(b1-3)Gal(b1-4)GlcNAc(b1-3)Gal(b1-4)GlcNAc(b1-3)Gal(b1-4)GlcNAc(b1-2)[GlcNAc(b1-3)Gal(b1-4)GlcNAc(b1-3)Gal(b1-4)GlcNAc(b1-3)Gal(b1-4)GlcNAc(b1-3)Gal(b1-4)GlcNAc(b1-6)]Man(a1-6)[GlcNAc(b1-3)Gal(b1-4)GlcNAc(b1-3)Gal(b1-4)GlcNAc(b1-3)Gal(b1-4)GlcNAc(b1-3)Gal(b1-4)GlcNAc(b1-2)Man(a1-3)]Man(b1-4)GlcNAc(b1-4)[Fuc(a1-6)]GlcNAc
# How it was run: as §1
# [29] = molecular target: GlcNAc(b1-3)Gal(b1-4)GlcNAc(b1-3)Gal(b1-4)GlcNAc(b1-3)GalNAc
# How it was run: as §1
# [30] = molecular target: GlcNAc(b1-3)Gal(b1-4)GlcNAc(b1-3)GalNAc
# How it was run: as §1
# [31] = molecular target: GlcNAc(b1-3)Gal(b1-4)GlcNAc(b1-3)[GlcNAc(b1-3)Gal(b1-4)GlcNAc(b1-3)]GalNAc
# How it was run: as §1
# [32] = molecular target: GlcNAc(b1-3)Gal(b1-4)GlcNAc(b1-6)[Gal(b1-3)]GalNAc
# How it was run: as §1
# [33] = molecular target: GlcNAc(b1-3)Gal(b1-4)GlcNAc(b1-6)[GlcNAc(b1-3)Gal(b1-3)]GalNAc
# How it was run: as §1
# [34] = molecular target: GlcNAc(b1-3)Gal(b1-4)GlcNAc(b1-6)[GlcNAc(b1-3)]Gal(b1-4)GlcNAc
# How it was run: as §1
binder,measurement,setting,value
Epa1 (Candida glabrata) (protein) MGSSHHHHHHSSGLVPRGSHMTSSNDISLASKDPTTFPLGCSPDITTPKKGLSMELYSYDFRKKGSYPCWDAAYLDPNYPRTGYKSHRLLAKVDGVTGNINFYYHATKGCTPQLGHLPASYNYPKPLTMTNFTMLLYGYFRPKVTGFHTFTISADDLLFVNFGAGNAFDCCRRDSSADHFGNYQAYAIWGSKTAKDELTVHLDAGVYYPIRLFYNNREYDGALSFTFKTESNENTVSDFSEYFFSLDDTEEGCPGLISYD,glycan array binding signal (z-score),[1],3.02
same,glycan array binding signal (z-score),[2],-0.263
same,glycan array binding signal (z-score),[3],-0.308
same,glycan array binding signal (z-score),[4],-0.31
same,glycan array binding signal (z-score),[5],-0.336
same,glycan array binding signal (z-score),[6],-0.296
same,glycan array binding signal (z-score),[7],-0.252
same,glycan array binding signal (z-score),[8],-0.293
same,glycan array binding signal (z-score),[9],-0.34
same,glycan array binding signal (z-score),[10],-0.278
same,glycan array binding signal (z-score),[11],-0.318
same,glycan array binding signal (z-score),[12],-0.299
same,glycan array binding signal (z-score),[13],-0.351
same,glycan array binding signal (z-score),GlcNAc(b1-3)Fuc,-0.261
same,glycan array binding signal (z-score),GlcNAc(b1-3)Gal,-0.321
same,glycan array binding signal (z-score),[14],-0.246
same,glycan array binding signal (z-score),GlcNAc(b1-3)Gal(b1-4)Glc,-0.303
same,glycan array binding signal (z-score),[15],-0.309
same,glycan array binding signal (z-score),[16],-0.327
same,glycan array binding signal (z-score),[17],-0.256
same,glycan array binding signal (z-score),[18],-0.267
same,glycan array binding signal (z-score),[19],-0.287
same,glycan array binding signal (z-score),[20],-0.256
same,glycan array binding signal (z-score),[21],-0.245
same,glycan array binding signal (z-score),[22],-0.206
same,glycan array binding signal (z-score),[23],-0.298
same,glycan array binding signal (z-score),[24],-0.268
same,glycan array binding signal (z-score),[25],-0.26
same,glycan array binding signal (z-score),[26],-0.286
same,glycan array binding signal (z-score),[27],-0.177
same,glycan array binding signal (z-score),[28],-0.207
same,glycan array binding signal (z-score),[29],-0.32
same,glycan array binding signal (z-score),[30],-0.289
same,glycan array binding signal (z-score),[31],-0.18
same,glycan array binding signal (z-score),[32],1.03
same,glycan array binding signal (z-score),[33],-0.264
same,glycan array binding signal (z-score),[34],-0.31
